Data from PMC10669843.
Results are given in words; binding and its absence hold for the method and conditions named. Binding seen in cells or lysates may run through a third protein. Some binding calls cover weakened binding; strength is not graded here.

Amino acid sequences for entries named in this document (tags omitted). Residues count along the entry.
UniProt P12075, residues 32-129: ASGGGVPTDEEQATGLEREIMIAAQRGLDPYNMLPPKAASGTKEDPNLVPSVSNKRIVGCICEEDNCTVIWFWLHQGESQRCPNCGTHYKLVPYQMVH
UniProt P10888, residues 23-169: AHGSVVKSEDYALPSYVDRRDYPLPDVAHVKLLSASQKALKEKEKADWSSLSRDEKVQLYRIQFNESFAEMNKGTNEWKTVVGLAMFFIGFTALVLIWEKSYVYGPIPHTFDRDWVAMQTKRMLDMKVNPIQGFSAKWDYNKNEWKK

Tests used:
[1] = molecular target: cytochrome c oxidase subunit Vb (rat (endogenous in rat brain mitochondria)) (UniProt P12075); experiment: co-IP; immunoprecipitation of CCOVb; no details told
[2] = molecular target: brain mitochondrial nitric-oxide synthase (NOS; alpha NOS1 isoform) (rat (endogenous in rat brain mitochondria)) (UniProt P29476); experiment: co-IP; rabbit polyclonal anti-NOS1 prebound to agarose beads; rat brain mitochondrial lysate with 4–6 nmol calcium ions/mg mitochondrial protein; Western blot for CCOIV and CCOI
[3] = molecular target: brain mitochondrial nitric-oxide synthase (NOS; alpha NOS1 isoform) (rat (endogenous in rat brain mitochondria)) (UniProt P29476); experiment: co-IP; rabbit polyclonal anti-NOS1 prebound to agarose beads; rat brain mitochondrial lysate with EGTA (4 mM in the results, 20–25 mM in the methods); Western blot for CCOIV and CCOI
[4] = molecular target: biotinylated recombinant NOS1 (UniProt P29476); experiment: pull-down; biotinylated recombinant NOS1 on avidin-linked beads; brain mitochondrial inner membrane lysate with 5 mM EGTA during binding; washed with 1 M NaCl in acetate buffer; eluted with EGTA; Western blot; only the target purified
[5] = molecular target: biotinylated recombinant NOS1 (UniProt P29476); experiment: pull-down; biotinylated recombinant NOS1 (150 µg) on avidin-linked beads; brain mitochondrial inner membrane lysate (1 mg) with 4–6 nmol calcium ions/mg protein, 1 h at 4 °C; washed with 1 M NaCl in acetate buffer pH 5.0; eluted with elution buffer (pH 2.8) with 5 mM EGTA; Western blot; only the target purified
[6] = molecular target: cytochrome c oxidase subunit IV (rat (endogenous in rat brain mitochondria)) (UniProt P10888); experiment: co-IP; 2 µg mouse monoclonal anti-CCOIV on protein-G agarose; crude NOS preparation in HEPES buffer with CHAPS (50 mM HEPES, 1 mM EDTA, 20 mM CHAPS, pH 7.5), 1 h at 4 °C; Western blot with C-terminal anti-NOS1

binding [1]	binding [2]	binding [3]	binding [5]	binding [6]	Substance	binding [4]
binds	binds	no binding (condition: with 4 mM EGTA)	binds	–	cytochrome c oxidase subunit IV (from UniProt P10888 23-169)	no binding (condition: with 5 mM EGTA during binding)
–	–	–	–	binds	brain mitochondrial nitric-oxide synthase (NOS; alpha NOS1 isoform) (from UniProt P29476 1-1429) (enzyme)	–
–	no binding	no binding	–	–	cytochrome c oxidase subunit I (from UniProt P05503 1-514)	–
